# Source: the supplement of paper PMC3334620
# Over roughly 33,000 sequences, “E-score (-0.5 to 0.5)” has its median near -0.036; the highest 2% begin near 0.37. Some of the results follow.
# Target: T1, Yer064c (UniProt P40041)
# T1 sequence: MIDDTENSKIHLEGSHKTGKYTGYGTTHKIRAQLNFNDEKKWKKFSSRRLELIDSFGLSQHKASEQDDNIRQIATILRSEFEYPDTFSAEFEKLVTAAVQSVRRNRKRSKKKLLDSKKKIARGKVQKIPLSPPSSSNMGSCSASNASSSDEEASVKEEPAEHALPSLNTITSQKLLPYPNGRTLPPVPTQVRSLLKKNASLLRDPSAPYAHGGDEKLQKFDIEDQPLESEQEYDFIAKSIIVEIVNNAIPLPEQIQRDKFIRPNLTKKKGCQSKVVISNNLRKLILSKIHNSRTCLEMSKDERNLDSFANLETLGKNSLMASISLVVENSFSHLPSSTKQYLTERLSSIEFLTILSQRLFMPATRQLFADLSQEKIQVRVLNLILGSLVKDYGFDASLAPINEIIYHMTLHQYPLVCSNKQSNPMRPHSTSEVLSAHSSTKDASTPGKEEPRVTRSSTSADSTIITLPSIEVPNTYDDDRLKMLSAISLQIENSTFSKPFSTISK
# Test: PBM E-score (8-mer binding enrichment) (E-score (-0.5 to 0.5)); higher = stronger / more preferred TF binding; most listed sequences are background and not binding sites
# Settings: protein concentration: 200 nM; construct: GST-full length
# How it was run: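 Each ungapped eight-base word and its reverse complement, pooled, received an E-score from the Universal PBM Analysis Suite. Underlying scans, normalised with masliner, recorded fluorescent anti-GST bound to GST-tagged yeast transcription factors. These were applied at about 100-200 nM to universal all-10-mer Agilent arrays double-stranded by primer extension.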
row,Sequence,PBM E-score
1,AATAGCCG,-0.128
2,AAAGTGCC,-0.0752
3,CATTGTTC,-0.177
4,GCTATTGA,-0.0582
5,CACGGATA,0.0811
6,ACAGTGCA,-0.164
7,ACTTCATA,-0.0355
8,CCAGAGTA,-0.0992
9,CTGCCAGC,-0.104
10,ACTGCAAG,-0.0713
11,GGAGAGTA,-0.0137
12,TCTTAGAA,0.141
13,CACTTATA,0.0646
14,ACTTTTGA,0.0751
15,ACCATCGC,0.178
16,ACAATACG,-0.187
17,ACACACTG,0.0265
18,CGACTTCA,0.226
19,AGGATTGG,0.0372
20,CCCAACCG,-0.132
21,CACAAGTA,0.0928
22,AGAAGCAA,-0.00856
23,AGAGATCG,-0.15
24,AACCGCTC,0.0832
25,CTAAGGCC,-0.077

row,Sequence,PBM E-score
1,CATGTAAG,-0.068
2,GCCTCGCA,-0.00344
3,AATCCACT,-0.0125
4,CCGAGGAA,-0.258
5,ACGTGTCT,0.0182
6,CCAGGGAA,-0.268
7,GTGTCACA,0.0892
8,ACGTTACC,-0.254
9,TGGGTTAA,0.0487
10,CGATGGGA,-0.1
11,ACACCTGG,-0.033
12,GAAGGTCC,-0.197
13,ATGGTTCG,0.0445
14,GGTCAATA,0.108
15,ACGACGCG,-0.0207
16,ACGTACAG,-0.237
17,GCAGCAGC,-0.189
18,TAGACTAA,0.3
19,AGGAGATG,0.0306
20,GCACATCA,0.0514
21,CACTGTGG,-0.177
22,GGGCCAAA,-0.0926
23,CGTTGATA,0.0048
24,ATTCAATC,0.308
25,GTTCCAGA,-0.164

row,Sequence,PBM E-score
1,AGTAAGGC,-0.146
2,CCGGAAGA,-0.0156
3,GAGTTGGC,-0.0416
4,CCCCAATA,-0.218
5,AACCGACG,-0.185
6,AAACCATC,0.191
7,AGTTCTAA,0.16
8,AGTGACTC,0.486
9,ACCACGCA,0.00876
10,CATACGCC,-0.136
11,CTAGTGTC,-0.0221
12,AATTAATT,0.177
13,GTTCTCGA,0.0156
14,AGGACGTG,-0.126
15,AGGCCCCC,-0.473
16,ATCCGGGC,-0.228
17,AATCCCCG,-0.0169
18,GTTCGATA,-0.107
19,TAAGTCGA,0.103
20,AGAGAGTG,-0.104
21,ACCTTGGA,-0.0702
22,AAAGGTCC,-0.197
23,ACGTGAGA,-0.125
24,CTGGATAA,-0.00609
25,GCTTTTTA,-0.0979

row,Sequence,PBM E-score
1,ACTTATGA,0.304
2,ACCTCCAG,-0.226
3,ACGGGTAG,0.0544
4,CGACAGGC,-0.121
5,CAGGAACG,-0.305
6,ATGTACGA,-0.174
7,AAGCTATC,0.06
8,AAAAGCGT,0.0573
9,GCCATGAC,0.307
10,GTAATTCA,0.0337
11,CTGAGAGA,-0.0026
12,ATCAGTGC,0.153
13,GTAACCGA,-0.0287
14,ATGAAGTG,-0.0985
15,CATCTTGC,0.112
16,ACCGCAAT,0.146
17,CCACAGCA,-0.173
18,AGCGTAAA,0.126
19,CAAAAATC,0.0115
20,ATGCTAAA,0.0382
21,AACACGCG,0.0221
22,AAAATTTG,-0.00395
23,GGTGCGTA,-0.255
24,ATGGTGTA,-0.0684
25,AGCGCTCC,-0.244

row,Sequence,PBM E-score
1,GGAGCACA,-0.0954
2,GCGGATCA,0.0842
3,TCTCACCA,-0.117
4,CATATGCC,-0.107
5,ATTTGCCA,-0.0327
6,AGATAACT,0.0858
7,AAGGGCCC,-0.112
8,ATCACGCG,0.169
9,ATACTAGG,-0.0478
10,AAAAGGTG,-0.0707
11,ATTCAAGG,0.133
12,AACTGAGA,0.113
13,GATGATAA,-0.017
14,CACAAGCA,-0.0637
15,GGGCAACA,-0.0991
16,ACCAGCGT,-0.0354
17,CCCAATCG,-0.0382
18,ATCATGGG,0.138
19,AGCGTACA,-0.0265
20,AGAAGTTA,-0.0371
21,CCCCCGAG,-0.245
22,AGGCCCGG,-0.262
23,GGTAAGAC,0.127
24,CTCAAATA,0.0245
25,AGCTGGAT,-0.0706

row,Sequence,PBM E-score
1,CTTATACA,0.0544
2,CTGATTTA,0.238
3,ACAAGGCC,-0.244
4,CCTTGAAC,-0.0599
5,GACACTGA,0.0567
6,AAACTGGT,-0.206
7,ACCAATCC,-0.187
8,GTAGCACA,0.144
9,GAGTGTAC,-0.0806
10,AGAGTTTA,0.0546
11,CACGTCCG,-0.285
12,AGTGACGA,0.218
13,AGAGACAT,0.208
14,CGGACGGA,-0.179
15,GGGGTTAA,0.116
16,ATGTTCCG,-0.0922
17,AACCGGAT,-0.043
18,CCCGCACC,-0.217
19,ACAATTAG,-0.0116
20,GATCATCC,0.171
21,AGCGACTA,0.391
22,CTCGCGCC,-0.0984
23,ACATCCTA,0.0331
24,CAAGGCTA,0.0888
25,ACTCTTTA,0.241

row,Sequence,PBM E-score
1,GTGCGTGA,0.104
2,AATGCGTA,0.00743
3,CTAATAAC,0.0519
4,AGTATAGG,-0.00011
5,CATGCAAC,-0.139
6,AAAAGACC,-0.145
7,CCAGCGAC,0.014
8,ATGCCGCC,-0.282
9,CTTGCATC,-0.152
10,CTTGCGAA,0.00222
11,ACTCGTTC,0.257
12,ATCGTCGG,0.172
13,ACTGCGTC,-0.00926
14,GAACGCAA,0.0733
15,ACGGAAAT,0.0967
16,AACAAAAA,0.141
17,AGGTTAGG,-0.104
18,ACCCAGGT,-0.175
19,GCGAGTCA,0.485
20,CGCAACTC,0.00054
21,TAGCACCA,-0.204
22,CATAATGG,-0.0492
